According to PubChem BioAssay AID504374 (National Center for Advancing Translational Sciences (NCATS), 2011):
Among all 1,500 compounds or so, about 100 (6.7%) were called active. About 7% were inconclusive and are not listed. Calls follow the shape of the dose curve; as a rule, active = well fitted inhibition curve with a large enough effect; inconclusive = small, poorly fitted or top-dose-only effect, or effect the other way; inactive = flat fitted curve, though single readings scatter. Some of the results follow.

Each molecule was assayed against Runt-related transcription factor 1 (Homo sapiens) + Core-binding factor subunit beta (Homo sapiens) (UniProt Q01196+Q13951) (assay: qHTS Assay for Compounds Blocking the Interaction Between CBF-beta and RUNX1 for the Treatment of Acute Myeloid Leukemia: Hit Validation). Conditions: AlphaScreen CBFb-His/RUNX1-biotin binding; series mostly up to 59.8 µM; activity, negative = inhibition: at the top concentration.
Chain of UniProt Q01196 (Q01196 whole entry, looked up): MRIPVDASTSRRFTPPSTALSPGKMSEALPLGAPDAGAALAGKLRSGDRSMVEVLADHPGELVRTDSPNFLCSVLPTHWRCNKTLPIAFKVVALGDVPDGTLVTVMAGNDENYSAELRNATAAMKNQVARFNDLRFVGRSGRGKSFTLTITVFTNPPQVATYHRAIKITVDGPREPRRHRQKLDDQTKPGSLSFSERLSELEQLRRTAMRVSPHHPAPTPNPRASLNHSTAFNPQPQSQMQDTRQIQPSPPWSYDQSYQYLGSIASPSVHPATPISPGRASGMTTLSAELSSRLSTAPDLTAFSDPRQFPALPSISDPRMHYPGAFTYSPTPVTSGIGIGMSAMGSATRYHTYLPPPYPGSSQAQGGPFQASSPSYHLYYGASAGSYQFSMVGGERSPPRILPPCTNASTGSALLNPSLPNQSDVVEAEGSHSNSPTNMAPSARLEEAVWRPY
Chain of UniProt Q01196 (Q13951 whole entry, looked up): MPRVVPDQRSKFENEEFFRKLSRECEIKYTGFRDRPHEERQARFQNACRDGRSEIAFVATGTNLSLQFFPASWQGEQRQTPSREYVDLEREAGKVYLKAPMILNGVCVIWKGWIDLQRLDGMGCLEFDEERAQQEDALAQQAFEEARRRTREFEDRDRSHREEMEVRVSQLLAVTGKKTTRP
Excerpt: NIH Chemical Genomics Center [NCGC]
NIH Molecular Libraries Probe Production centers Network [MLPCN]
Assay Submitter (PI): Paul Liu
Core Binding Factor (CBF) abnormalities are associated with 20-25% of all acute myeloid leukemias (AML), of which 5-10% are further sub classified as acute myelomonocytic leukemia with eosinophilia, also known as M4Eo in the FAB classification scheme. This subtype of leukemia is usually associated with chromosome 16 inversion (p13:q22). Chromosome 16 inversion results in formation of the fusion oncogene CBFB-MYH11, which encodes the fusion protein CBF-beta-SMMHC.
It has been hypothesized that the interference of CBF-beta and RUNX1 binding could have therapeutic implications for patients with CBF mediated leukemias. We developed a CBF-beta and RUNX1 binding assay in AlphaScreenTM format and optimized it for high throughput screening to search for inhibitors. The goal of this project is to screen MLPCN's compound collection (MLSMR) for identifying the inhibitors of the interaction between CBF-beta and RUNX1 proteins as research probes. If these probes work well in the animal models, the ultimate goal of this project is to development a new drug treatment for this disease.
This assay can not be used to assess how apparent inhibitors interfere with protein binding, and whether inhibitors specifically bind to either protein. Disruption of this protein-protein interaction, through any mechanism, is the intended target activity.
The present data set was run to confirm the activity of hits from the primary screen.
NCGC Assay Protocol Summary:
Step, Parameter, Description
(1) Reagent, 3 uL CBFb-His/RUNX1-biotin mix incubated together for 20 minutes at room temperature (30 nM each)
(2) Compound or control, 23 nL compound stock solution
(3) Incubation, 15 minutes at Room temperature
(4) Reagent, 1 uL 50 ng each of beads (Nickel beads and streptavidin beads)
(5) Incubation, 90 minutes at Room temperature
(6) Detection, Excitation=365 nm Emission=440 nm, Envision reader in AlphaScreenTM mode
Keywords: MLSMR, MLPCN, NIH Roadmap, qHTS, NCGC, Core binding factor, CBF, CBF-beta, Acute myeloid leukemia
% is scaled to controls: 0 for no effect and ±100 for the full control effect; potency is read from the fitted curve at half-maximal effect.
Also: nearly all actives have a fitted effect of over 60% in size.

SMILES | Potency | activity, negative = inhibition
O=c1c(-c2cc(O)c(O)c(O)c2)coc2cc(O)c(O)c(O)c12 | active: 0.447 µM | –
Cn1nc2c3ccccc3n(Cc3ccccc3)c2nc1=S | – | inactive: -12.9%
Cc1nc([N+](=O)[O-])cn1C(C)C | – | inactive: -11.3%
NNC(=O)c1ccc(Cn2cc(Br)cn2)o1 | – | inactive: -4.5%
O=C(O)C1(c2ccccc2)CCN(S(=O)(=O)c2ccc(Cl)s2)CC1 | – | inactive: -0.0237%
CCOc1ccc(N2C(=O)CC(NNc3nc4ccccc4s3)C2=O)cc1 (stereo not given) | – | inactive: 5.71%
COC(=O)c1cccc(NC(=O)C(C)(C)C)c1 | – | inactive: -2.68%
Cc1ccc(/C=C/c2nc3ccccc3c(=O)[nH]2)cc1 | – | inactive: 1.17%
Cn1c(=O)c([N+](=O)[O-])c(NCc2ccccc2Cl)c2ccccc21 | – | inactive: -12.8%
COc1cccc(CC(=O)NNC(=O)c2c(-c3ccccc3)noc2C)c1 | – | inactive: -3.55%
COc1ccc(C(=O)NC(=S)Nc2ccc(CN3CCOCC3)cc2)cc1 | – | inactive: -11.1%
Clc1cccc(Cl)c1Cn1nnc(N2CCCC2)n1 | – | inactive: 0.0502%
NNC(=O)c1ccc(Cn2cccn2)o1 | – | inactive: -3.9%
COc1ccc(NC(=O)Nc2nc3ccccc3s2)cc1 | – | inactive: 6.08%
O=C(CN1C(=O)c2ccccc2S1(=O)=O)c1ccc2c(c1)OCCO2 | – | inactive: -13.4%
Cc1ccccc1Nc1nc(N)nc(CCl)n1 | – | inactive: -29.2%
O=C(O)/C(=C\c1ccccc1)c1ccccc1 | – | inactive: -0.0307%
CCCSc1cc(Cl)nc(N)n1 | – | inactive: -2.32%
CC(C)(C)OC(=O)N1CCC[C@H]1c1nnc(SCc2ccccc2)o1 | – | inactive: -4.21%
Cc1ccc(-n2[nH]c(C)c(/C=N/c3cccc(C)n3)c2=O)cc1 | – | inactive: 3.64%

SMILES | Potency | activity, negative = inhibition
Cc1ccc(C(CCNC(C)c2cccs2)c2ccco2)cc1 (stereo not given) | – | inactive: 10%
O=[N+]([O-])c1ccc(C2CC(c3ccccc3)=Nc3ccccc3S2)cc1 (stereo not given) | – | inactive: -19.8%
CCNC(=S)NNc1ccccc1 | – | inactive: -8.08%
CCNC(=S)N1N=C2c3ccccc3CCC2C1c1ccc(F)cc1 (stereo not given) | – | inactive: 7.45%
CN(c1cnn(-c2ccccc2)c(=O)c1Cl)n1cccc1 | – | inactive: -0.854%
O=[N+]([O-])c1ccccc1CSc1ccccn1 | – | inactive: 1.85%
Cn1ncc2c(c(SCc3ccc(Cl)cc3Cl)nn2C)c1=O | – | inactive: -2.46%
COc1ccc(CCN(C)CCC(=O)Nc2cccc(C)c2)cc1OC | – | inactive: -4.23%
O=C(CCl)NCCCN(C(=O)C(Cl)Cl)c1ccc([N+](=O)[O-])cc1 | – | inactive: -1.35%
CCOc1ccc(/C=C2\NC(=S)NC2=O)cc1 | – | inactive: 3.62%
CCOC(=O)/C(C#N)=C/Nc1ccsc1C(C)=O | – | inactive: 0.205%
Cn1c(C(=O)c2ccncc2)cc2ccccc21 | – | inactive: -2.19%
O=C(CC1NCCNC1=O)NC1Cc2ccccc2C1 (stereo not given) | – | inactive: 9.2%
O=[N+]([O-])c1cc2c(cc1/C=N/n1c(-c3ccccn3)n[nH]c1=S)OCO2 | active: 10 µM | –
CCOC(=O)C1=C(C)NC(C)=C(C(=O)OCC)C1 | – | inactive: 0.11%
O=C(CN1C(=O)c2ccccc2S1(=O)=O)c1ccc2c(c1)OCCCO2 | – | inactive: -4.48%
CCOC(=O)NC1c2ccccc2Oc2ccccc21 | – | inactive: 3.42%
COc1ccc2[nH]c(-c3ccccc3)cc2c1 | – | inactive: -8.62%
COc1cc2c(cc1OC)C1(C)N(CC2)C(C(C)=O)=NN1c1ccc(Cl)cc1 (stereo not given) | – | inactive: 11.8%
O=C(O)/C=C/C(=O)Nc1ccc(-n2ccc(C(F)(F)F)n2)cc1 | – | inactive: -7.33%

SMILES | Potency | activity, negative = inhibition
CCOC(=O)N1CCC(NS(=O)(=O)c2ccccc2)CC1 | – | inactive: -16.1%
COc1ccc(CN(Cc2cccn2C)S(=O)(=O)c2ccc(F)cc2)cc1 | – | inactive: -9.03%
CC1CCc2c(sc(NC(=O)Cn3nc(C(=O)O)c4ccccc4c3=O)c2C#N)C1 (stereo not given) | – | inactive: -1.1%
O=C(O)C1CCc2sc3[nH]c(=S)n(-c4ccccc4)c(=O)c3c21 (stereo not given) | – | inactive: -5.37%
CCN(CC)CCN1C(=O)C(=O)/C(=C(/O)c2ccc3c(c2)CC(C)O3)C1c1ccc(OC)cc1 (stereo not given) | – | inactive: -3.3%
CCCCNC(=O)Nc1ccccc1CC | – | inactive: -3.42%
Cc1ccc(CN(C(=O)c2cc(=O)c3cc(C)cc(C)c3o2)C2CCS(=O)(=O)C2)cc1 (stereo not given) | – | inactive: 4.59%
CC(C)(C)OC(=O)N1CCCN(C(=O)Nc2cccc(Cl)c2)CC1 | – | inactive: -3.39%
COC(=O)c1[nH]c2ccccc2c1NC(=O)c1c(F)cccc1F | – | inactive: -3.97%
CCCc1cc(NCc2ccccn2)n2nc(C)c(-c3ccccc3)c2n1 | – | inactive: 7.5%
COc1ccc(C(=O)CN2C(=O)c3ccccc3C2=O)cc1 | – | inactive: -0.648%
CCCc1nc2sc3ccccc3c(=O)c2c(=O)n1Cc1ccc(OC)cc1 | – | inactive: 4.52%
CCOC(=O)c1cnc2c(C(=O)OCC)cnn2c1N | – | inactive: -0.993%
Cc1cc(C(=O)NNS(=O)(=O)c2cccc(Cl)c2)nn1C(C)(C)C | – | inactive: 2.17%
O=[N+]([O-])c1sccc1CS(=O)(=O)c1ccccc1 | – | inactive: 4.18%
CC(C)(C)C1CCC(OC(=O)CN2CCCCC2)CC1 (stereo not given) | – | inactive: -2.8%
Nc1cc(Nc2ccc(Br)cc2)nc(N)n1 | – | inactive: -6.85%
O=C(N/N=C/c1ccncc1)c1cnccn1 | – | inactive: -5.76%
Cc1ccnc(SCCn2c(N3CCN(C)CC3)nc3c2c(=O)n(C)c(=O)n3C)n1 | – | inactive: 0.846%
CCC(C)NC(=S)Nc1ccccc1 (stereo not given) | – | inactive: 1.69%
